From PMC5589798, “Alpha subunit-dependent glycine receptor clustering and regulation of synaptic receptor numbers” (Scientific Reports, 2017) come the findings set out here.

The target of one assay is T1, untagged GlyRα1 (UniProt P07727 29-457).
T1 construct: glycine receptor alpha-1 subunit, untagged; also called untagged α1 subunits; non-fluorescent subunits; source: COS-7, transfected, in cells
T1 sequence (looked up): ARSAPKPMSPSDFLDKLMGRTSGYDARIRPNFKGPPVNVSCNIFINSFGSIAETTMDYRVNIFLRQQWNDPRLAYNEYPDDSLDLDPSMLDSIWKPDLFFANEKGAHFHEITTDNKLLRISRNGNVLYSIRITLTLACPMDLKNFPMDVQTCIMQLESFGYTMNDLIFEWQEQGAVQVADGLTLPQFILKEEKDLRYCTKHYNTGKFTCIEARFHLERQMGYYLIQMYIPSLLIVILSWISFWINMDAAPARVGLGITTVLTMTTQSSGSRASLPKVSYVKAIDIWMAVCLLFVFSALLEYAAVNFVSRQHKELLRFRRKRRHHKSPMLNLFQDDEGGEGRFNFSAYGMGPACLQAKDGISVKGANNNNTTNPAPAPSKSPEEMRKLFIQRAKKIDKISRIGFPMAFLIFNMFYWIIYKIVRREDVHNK
Kind of assay: PALM-based single molecule counting; fixed transfected COS-7 cells; bursts of Dendra2 detections counted in 120 nm clusters, binomial fit; Dendra2-GlyR subunits alone or with untagged subunits. The note with it: partners not purified.

Another assay concerns the target T2, untagged GlyRα3 (UniProt O75311 34-464).
T2 construct: glycine receptor alpha-3 subunit, untagged; also called untagged α subunits; non-fluorescent subunits; source: COS-7, transfected, in cells
T2 sequence (looked up): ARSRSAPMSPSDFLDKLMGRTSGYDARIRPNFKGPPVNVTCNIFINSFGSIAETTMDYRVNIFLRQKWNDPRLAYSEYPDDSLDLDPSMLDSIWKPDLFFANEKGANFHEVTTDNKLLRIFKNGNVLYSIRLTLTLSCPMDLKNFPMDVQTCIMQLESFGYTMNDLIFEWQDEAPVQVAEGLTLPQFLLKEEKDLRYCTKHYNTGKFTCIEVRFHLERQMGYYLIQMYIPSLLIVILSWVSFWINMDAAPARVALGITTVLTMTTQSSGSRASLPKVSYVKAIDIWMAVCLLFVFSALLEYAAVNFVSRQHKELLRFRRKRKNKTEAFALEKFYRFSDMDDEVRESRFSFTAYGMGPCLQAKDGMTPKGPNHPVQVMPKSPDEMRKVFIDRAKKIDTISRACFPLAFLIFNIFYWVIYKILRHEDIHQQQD
The assay is described as above. Conditions: partners not purified.

B1: Dendra2-GlyRβ (FU-SP-myc-Dendra2-GlyRβ) (receptor)
chain: not shown
notes: human glycine receptor beta subunit; source: COS-7, transfected (FuGENE 6), in cells; spinal cord neurons, lentivirus infected, in cells; not shown: myc, N-terminal, kept; Dendra2, N-terminal, kept
On to B1, for which the “stoichiometry N” value with untagged GlyRα1 and in the assay with untagged GlyRα3 was 2 β subunits per complex in each case.
